Experimental data: PubChem BioAssay AID588549 (Broad Institute, 2011)
In all, about 360,000 compounds went through this assay and about 780 (0.22%) were called active. Inconclusive results, whose numbers are uncertain, are shown with a selection of clear calls. Rule as the data show it: active = inhibition above about 8.5% (passing the limit was not always enough); inconclusive = no clear call, values can overlap the other calls.

System: Mycobacterium tuberculosis FadD28 fatty-acid-AMP ligase
Assay: inhibitors of FadD28 bisubstrate probe binding, primary screen, biochemical, fluorescence polarization, single point (AID 588549)
Conditions: at 12.5 µM, stronger effect = higher value

SMILES | inhibition
CCC1=NN(C(=O)c2ccccc2Br)C(O)(c2ccc(Br)cc2)C1 (stereo unspecified) | inconclusive: 7.86%
COc1cc(/C=N/NC(=O)C(Cc2c[nH]c3ccccc23)NC(=O)OCC(C)C)cc([N+](=O)[O-])c1O (stereo unspecified) | inconclusive: 6.52%
COc1cc(NCc2ccccc2O)c2ncccc2c1 | active: 12%
COc1ccc2nc(-c3ccco3)c(-c3ccco3)nc2c1 | inconclusive: 7.03%
Cc1ccc(C(=O)N2CCCC2)cc1S(=O)(=O)N1CCOCC1 | inconclusive: 4.32%
COc1ccc(-c2coc3cc(O[C@@H]4O[C@H](CO)[C@@H](O)[C@H](O)[C@H]4O)ccc3c2=O)cc1 | inconclusive: 5.86%
CSc1cccc(CN2CCC(CCC(=O)NC3CC3)CC2)c1 | inconclusive: 3.79%
COC1=CC(=O)OC(CCc2ccc3c(c2)OCO3)C1 (stereo unspecified) | inconclusive: 6.48%
COc1ccc(OC)c(C2CC(=O)Nc3c2c(=O)[nH]c2ncnn32)c1 (stereo unspecified) | inconclusive: 5.21%
N#C/C(=C(/O)COC(=O)CSc1ccc2ccccc2c1)c1nc2ccccc2[nH]1 | inactive: -2.47%
O=C(NCC(c1cccs1)N1CCOCC1)c1ccccc1NS(=O)(=O)c1ccc(Cl)c([N+](=O)[O-])c1 (stereo unspecified) | inactive: -0.335%
CC(=O)NCc1ccc(C(=O)CCl)cc1 | inactive: -2.22%
Oc1c(Br)cc(/C=N/n2c(-c3ccccc3)n[nH]c2=S)c(O)c1Br | inconclusive: 11.3%
O=C(O)c1ccc(N/N=C/C(Br)=C/c2ccccc2)cc1 | inconclusive: 6.65%
N[C@@H](Cc1ccccc1)C(=O)N1C[C@H]2C[C@@H](C1)c1cccc(=O)n1C2 | inactive: 0.0225%
COc1cc(/C=N/NC(=O)C(Cc2c[nH]c3ccccc23)NC(=O)OCc2ccccc2)cc([N+](=O)[O-])c1O (stereo unspecified) | inconclusive: 7.69%
O=C1NCN(c2ccccc2)C12CCN(CCCC(c1ccc(F)cc1)c1ccc(F)cc1)CC2 | inactive: -8.07%
COc1ccc(Cn2c(O)c(C=Nc3ccccc3C(=O)O)c3ccccc3c2=O)cc1 | inconclusive: 9.31%
c1cc2cn[nH]c2cc1NC1CCCCCC1 | inactive: -0.325%
COc1ccc(CN(C)C(=O)c2ccc(OCC(=O)Nc3cccc(C(F)(F)F)c3)c(OC)c2)c(OC)c1 | inconclusive: 5.43%
Oc1c(N=Nc2nn[nH]n2)ccc2ccccc12 | active: 29.8%
Cc1cccnc1C(NC(=O)C1CCN(CCCc2ccccc2)CC1)c1ccc(Cl)cc1 (stereo unspecified) | inconclusive: 1.34%

SMILES | inhibition
O=C(Nc1ccc(N2CCN(C(=O)c3ccccc3)CC2)cc1)c1ccc([N+](=O)[O-])o1 | inactive: -3.03%
O=c1[nH]c(=S)n(-c2cccc(Cl)c2)c(O)c1/C=N/N1CCOCC1 | inactive: 0.202%
Cn1c(=O)c2[nH]c(CCCc3ccc([N+](=O)[O-])cc3)nc2n(C)c1=O | inactive: -1.15%
COCC(C)N=Cc1c(O)[nH]c2ccccc12 (stereo unspecified) | inconclusive: 6.92%
Cc1ccc(S(=O)(=O)Nc2ccc(O)c3ccccc23)c(C)c1 | active: 54.6%
CCOc1cc(C2NC(=O)NC(C)=C2C(=O)OCC2CCCCC2)ccc1O (stereo unspecified) | inconclusive: 5.05%
CCOC(=O)CSc1nc(C)c2ccccc2n1 | inconclusive: 5.83%
O=C(O)c1cccc2c1-c1ccccc1/C2=N\Nc1ccccc1 | inconclusive: 6.83%
Cc1cccc(-n2c(-c3ccco3)n[nH]c2=S)c1 | inactive: 0.878%
C/C(=N\NC(=O)c1cc(O)cc(O)c1)c1ccc(NC(=O)Cc2ccccc2)cc1 | inconclusive: 6.75%
Oc1ccc(O)c(C=NNC(=S)NC2CC3CC2C2C=CCC32)c1 (stereo unspecified) | active: 17.8%
OCC[C@@H]1C[C@H](O)[C@@H](O)[C@]2(OCCc3cc(Cl)ccc32)O1 | inactive: -0.468%
O=C(Nc1ccc(Cl)cc1)N[C@@H]1c2c(ccc3ccccc23)OC[C@@H]1CO | inconclusive: 8.23%
C/C(=N\NC(=O)COc1ccccc1)c1ccc(O)cc1 | inconclusive: 8.29%
C[C@@H]1CN([C@H](C)CO)C(=O)c2cc(NC(=O)Nc3ccc(C(F)(F)F)cc3)ccc2O[C@H]1CN(C)S(=O)(=O)c1ccccc1 | inconclusive: 9.28%
COc1ccccc1[C@@H]1C(c2cccc(C)c2)=NN(c2ccccc2)[C@H]1C(=O)N1CCOC1=O | inconclusive: 7.65%
COC(=O)CN(c1ccc(OC)cc1)S(=O)(=O)c1ccc(OC)c(OC)c1 | inconclusive: 13.8%
CC(C)N(C)S(=O)(=O)c1ccc(NC(=O)CSC(=S)N2CCCC2)cc1 | inconclusive: 7.56%
C/C(=N/NC(=O)c1cc2ccccc2cc1O)C1C(=O)c2ccccc2C1=O | active: 36.5%
NC(Cc1ccccc1)c1nn[nH]n1 (stereo unspecified) | inconclusive: 3.96%
CCCCC(=O)OCC(=O)C1(O)Cc2c(O)c3c(c(O)c2C(OC2CC(NC(=O)C(F)(F)F)C(O)C(C)O2)C1)C(=O)c1c(OC)cccc1C3=O (stereo unspecified) | inconclusive: 6%
CCn1c(CSc2nnc3ccccn23)nc2cc(C(=O)O)ccc21 | active: 13.3%

SMILES | inhibition
O=Cc1ccc(N2N=C(c3ccccc3)CC2c2ccccc2)cc1 (stereo unspecified) | inconclusive: 8.03%
CCCCCCCCCCCCCCCC(=O)OC(CC(=O)O)C[N+](C)(C)C (stereo unspecified) | active: 17.3%
CCc1cc2c(=O)[nH]c(N3CCCC3)nc2s1 | inactive: -1.29%
Cc1cc(S(=O)(=O)Nc2c(NC3CCCCC3)c3ccccc3oc2=O)ccc1F | inconclusive: 3.57%
CC(Cc1ccc(O)cc1)NCC(O)c1ccc(O)c(O)c1 (stereo unspecified) | active: 8.17%
Cn1cc(/C=N/NC(=O)COc2ccccc2[N+](=O)[O-])c2ccccc21 | inconclusive: 5.69%
CCn1c(CSc2nnc(-c3ccncc3)n2C)nc2cc(C(=O)O)ccc21 | inconclusive: 7.14%
CC(=O)N1CCN(c2ccc(NC(=O)c3ccc(C(C)(C)C)cc3)cc2)CC1 | inconclusive: 41.7%
CC1CN(C(=O)c2cc3c(=O)n4ccccc4nc3s2)CC(C)O1 (stereo unspecified) | inactive: -0.926%
COc1ccc(C2=NN(C(=O)CCCC(=O)O)C(c3cccs3)C2)cc1OC (stereo unspecified) | inactive: 0.186%
COc1ccc(C(C(=O)NC2CCCCC2)N(C(=O)c2sc(C)nc2C)c2ccc(OC)cc2)cc1 (stereo unspecified) | inconclusive: 17.2%
CC1CCN(S(=O)(=O)c2ccc(NC(=O)Cn3nnc(-c4ccccc4F)n3)cc2)CC1 | inconclusive: 9.44%
Cc1ccc(S(=O)(=O)/N=C2\C=C(Nc3ccc(O)cc3)C(=O)c3ccccc32)cc1 | inconclusive: 7.28%
Cc1ccc(N2CC(O)=C(c3ccccc3)C2=N)cc1 | inactive: -5.27%
COc1cc(/C=C2\SC(=O)N(CC(=O)Nc3ccc(C)cc3)C2=O)cc(Cl)c1OCC(=O)O | inconclusive: 9.49%
O=c1cc(Nc2ccc3c(c2)OCCO3)[nH]c(=O)n1C1CCCCC1 | active: 15.1%
N#C/C(=C/c1ccc(O)c(O)c1)C(=O)NCc1ccc(Cl)cc1 | inconclusive: 7.21%
COc1ccc(/C=C/C(=O)N2CC(C)OC(C)C2)cc1OC (stereo unspecified) | inconclusive: 4.36%
O=C(c1cccc(C(F)(F)F)c1)N1CCN(CCc2ccccc2)CC1 | inconclusive: 7.17%
COc1cccc(C(=O)NCc2ccccc2OC)c1 | inconclusive: 36%
O=C(CSc1nncn1-c1cccnc1)N1CCOCC1 | inconclusive: 8.34%
O=C(O)c1[nH]c2ccccc2c1C(c1cc(Br)ccc1O)c1c(C(=O)O)[nH]c2ccccc12 | active: 35.3%

SMILES | inhibition
COc1ccc(CCNC(=O)C(=O)NCCCN2CCOCC2)cc1 | inconclusive: 2.76%
C=CCn1c(SCC(=O)Nc2sc(C)c(C)c2C(=O)OCC)nnc1-c1sc(N)nc1C | inactive: -0.217%
O=C(Nc1cccc(-c2nc3ccccc3[nH]2)c1)c1cccc(NC(=O)c2ccco2)c1 | active: 17.4%
COC(=O)c1cn(NC(=O)c2ccc([N+](=O)[O-])c(C)c2)c(=O)c2ccccc12 | inconclusive: 7%
COc1ccc(-c2coc3c(C(=O)Nc4cccc(C(C)=O)c4)cccc23)c(C)c1 | inconclusive: 3.25%
O=C(O)CN1C(=O)/C(=C\c2cccc(OCc3ccc(Cl)cc3Cl)c2)SC1=S | inactive: -6.27%
CC(C)(C)c1ccc(OCCC(=O)Nc2cccc(S(=O)(=O)N3CCCC3)c2)cc1 | inconclusive: 7.74%
O=C(O)CCC(=O)Nc1ccc(C(=O)OCC(=O)c2ccc(Cl)cc2)cc1 | active: 15%
O=c1ccc(N=Nc2ccccc2)ccc1O | inactive: -1.42%
Cc1nn(CC(=O)NCc2ccco2)c(C)c1[N+](=O)[O-] | inconclusive: 4.1%
Cc1nnc(Cc2ccco2)c2n[nH]c(C)c12 | inactive: -0.499%
CC(=O)N1CCN(Cc2nc3cc(NC(=O)NC4CCCCC4)ccc3n2C)CC1 | inconclusive: 5.72%
COc1cc(C(C)=O)ccc1OC(=O)N(C)c1ccccc1 | inconclusive: 3.58%
COc1ccc(NC(=O)/C(C#N)=C\C=C\c2ccco2)cc1 | inconclusive: 6.12%
CCOC(=O)NC(=O)CSc1ccc2ccccc2n1 | inactive: -0.0395%
O=C(O)c1cc(-c2ccc(/C=C3\NC(=O)N(c4ccc(Cl)cc4)C3=O)o2)ccc1Cl | active: 10.3%
CCCCOc1ccc(Nc2cc(Cl)ccc2C(=O)O)cn1 | inconclusive: 9%
C1CCCN(c2nc3nonc3nc2N2CCCCCC2)CC1 | inactive: -2.04%
Cc1ccccc1OCCC(=O)Nc1ccc2c(C)cc(=O)oc2c1 | inactive: -0.853%
Nc1ncnc2c1ncn2[C@@H]1O[C@H](CNCc2ccc(OCC(=O)Nc3ccccn3)cc2)[C@@H](O)[C@H]1O | inconclusive: 7.4%
